This is one part of the list.
tested on: PfHDP1 homeodomain (GST-tagged); test: gcPBM binding intensity (ln(normalized median fluorescence intensity)); higher = stronger DNA binding
Outline: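 An Agilent 4 × 180k array carrying primer-extended double-stranded 36-bp intergenic genomic probes and negative controls received GST-tagged P. falciparum DNA-binding domains expressed in E. coli, about 25 μg on average, for 1 h. The binding buffer contained 1× PBS, 1% milk, 0.2 mg/ml BSA, 0.5% salmon testes DNA and 0.03% Triton X-100. Binding intensity is the top Masliner-normalised natural-log median intensity across replicate spots of either probe orientation, read after Alexa488 anti-GST antibody staining and a 488 nm scan.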

Sequence	gcPBM binding intensity (ln)
ATATTGATGTATTGTTTTTTTTTTTTCTTTTTTTTT [CACACA_negctrl_site1238]	6.33
CCATGCATACATTCTTGTACACATTTCTATTATGAG [XGTACX_site39]	6.84
GAATTCAACAAAAAAAGTACTCTACATAAAATAATG [XGTACX_site175]	6.48
TTATAAAAGGACTTCTGTACGAATTTTTTTTAATAA [XGTACX_site1411]	5.57
GAACGAAACTTTCTTACACACATTGAAATTTTTTTC [CACACA_site1779]	6.78
TACTCACAATGGGGTCTACAAAAAAAAAAAAATAAA [XGTACX_negctrl_site229]	6.15
TCAAGAATTATATAAACACACATACATACACCCATA [CACACA_site5126]	7.03
TTATAATAAACCTATACACACATAAATAAATAAATA [CACACA_site2581]	6.68
TATGTATATATTTGTGCACACCAAAGTTTGATTTTA [CACACA_site1861]	11.4
AATAATATTTATTTTTGTACATATGTGCATTATAAA [XGTACX_site3682]	11.2
ATTAATTTTATATATGCACACAAAATATGTTCATAT [CACACA_site9350]	9.89
ATGATCATAAAACACACACACAAAAAAAAAAAAAAA [CACACA_site1805]	6.32
TAACATCCTAATGTCACACATGTTATAGGTTTAAAT [CACACA_site5649]	6.22
TTCTGGTGTAAATGCACACAGAAGAAGAAAAAAAAA [CACACA_site3685]	10.1
TAATTTAATTTTCCAAGAAAAAAAAAAGAAAAAAGA [CACACA_negctrl_site1703]	5.88
TACACCAGTTGTGGGAGTACACAAAAAAAGGGAAAA [XGTACX_site6047]	6.64
TTCTGTTCAAAATATGAACACACACCGATATATATA [CACACA_site8637]	6.72
AAAAATATAAAGAAATGTACTTATAAAAATCCCTAC [XGTACX_site3824]	6.27
AATATCATAAAATAAAGTACAAATATATATTGAAAA [XGTACX_site8813]	6.69

Sequence	gcPBM binding intensity (ln)
TGCAGTCTGGAGAAAAGTACACAGTATCTGGTAGCT [XGTACX_site2013]	6.14
CTTTATCTTTTTCATTGTACTTTATTTTAAAATTAA [XGTACX_site4858]	6.86
AATAGATTTTTATGCGTGCACACATTTAACAAAAAA	10.3
GTGCTAGTATTTAATACACACAATTGAAGTTCCTGA [CACACA_site1452]	6.61
GCTTGTTCAAAAATGAGTACATACAAATAGTTGTAT [XGTACX_site1770]	6.51
TATTTATGTAGATACACACCCATGTTATATGGAGGT [CACACA_site3461]	6.32
TTTCTTTTTTTTTTTATTTACCTGAATTATGTATTA [TGCATGCA_negctrl_site345]	6.35
TTTGAAATATTTATTTGTACATATACACACTTAAAT [XGTACX_site8321]	6.48
ATATTATTTTGTCAGGGTACATTCCATAAGTTTTTT [XGTACX_site6855]	6.55
CTCGTATATATAATACGTACATATTATATATATATA [XGTACX_site1704]	8.6
TTTACATACAAATTAACACACATATAGAAAAGAGAA [CACACA_site1889]	7.07
TCCTTTCTTTTTTAAACATGCATATGTAATATAAAT [TGCATGCA_site979]	6.53
AAAAAAAAAAAAAAAAAAACCACAAACAAATATGAA [TGCATGCA_negctrl_site34]	6.84
CCTTCATCATATTTAACACACAGAGAAAAAGCGGAT [CACACA_site274]	7.28
ATAATATAATAATACACACTCATTATATATATAAAG [CACACA_site3956]	6.65
TTTTAAAATATATTTGTATATATATATATATATATA [XGTACX_negctrl_site536]	9.48
AAAAAAAATAAACACACACACATACCCATAAATATA [CACACA_site5980]	7.01
TTTTGATATAAAAAAAGTACATTAATAATATTAATT [XGTACX_site4248]	6.14
TAAATAATAATAAATGTGCACAGGTATTAACAAAAA [GTGCAC_site9988]	10.6

Sequence	gcPBM binding intensity (ln)
CAGTATTCTTCTATATGTACTTATTTAAATATTCTT [XGTACX_site7555]	6.64
ATGATATGGATAAATACACACAATAAAATAATGTCT [CACACA_site6786]	6.5
TTTATTTATTTATGTTGTACAAGTTTATACTGGAAT [XGTACX_site6479]	6.8
TTTTAACAAAACAAAACAAAATAATATAAAGATAAC [TGCATGCA_negctrl_site154]	7.09
AATCAAAATTCATTAACACACAATTTTAATATTCTT [CACACA_site5178]	6.11
TATTTTTATAAGAGCATGCACTGTTTAAAATGGTAT	9.74
TTTTTTAAAATATGGACACACATATATATATATGTA [CACACA_site2784]	6.44
TAAAATTTAAAAAGGTGTACACTATAAATTAAAATA [XGTACX_site2081]	6.72
AGAAAGAATGAAAAATGTACATATATGTAATAGCTA [XGTACX_site364]	6.76
AGGTCACATTTGTCCTCACACATAGATAAATATATA [CACACA_site5460]	6.31
ATAATTTGATCAATTTTTCATTTTTCATTTTTTTAA [CACACA_negctrl_site1252]	6.48
GTCAAAAATAATATATGTACTTATAATAGATAAATG [XGTACX_site7755]	6.44
AATTAGCATTAAAAATGTACAAAAGAAAAAAATATA [XGTACX_site3816]	6.43
ATAAAATCATTCAATGGTACAGAAATACAAAATGTA [XGTACX_site6739]	6.48
TTAACATATGACATTTTTTCACCCTTCCTTTATTTT [CACACA_negctrl_site1192]	6.7
TATGTATAAAAATATTGTACATATTATATATATATA [XGTACX_site2947]	8.85
AAAAAATAAAAAAATAAAAAATAAAAAATAAAAAAT [TGCATGCA_negctrl_site90]	6.51
TTTTCTAAAAAAAGTTGTACATCTTATTTATATTAT [XGTACX_site295]	6.42
